In patent US10821142B2, “Cancer treatment and diagnosis” (priority 2015, dated 2020):

Tested on: IL-18 production in dendritic cells
Assay: qPCR of Il18 in bone marrow derived dendritic cells treated with AOM or DMH
Conditions: STING-dependent, 1 mM for 8 hours
Protocol: FIGS. 3A-3C show suppression of IL22BP expression in STING-deficient mice: (FIG. 3A) Fold changes from gene array analysis of Il18 in WT and SKO MEFs administrated with 4 ug/ml of dsDNA90 and IFNβ for 8 hours (Left). qPCR analysis of Il18 in WT and SKO MEFs transfected with 4 μg/ml of dsDNA90 and cyclic-di-GMP-AMP (cGAMP) for 8 hours (Middle). qPCR analysis of Il18 in bone marrow derived dendritic cells (BMDCs) from WT and SKO mice. BMDCs were treated with 1 mM of AOM and 1 mM of DMH for 8 hours (Right). (FIG. 3B) Schematic representation, body weight, and qPCR analysis of IL18, IL22 bp and IL22 from WT and SKO colon during one cycle of DSS administration for 5 days followed by 2 days of normal water. (FIG. 3C) qPCR analysis of IL18, IL22 bp and IL22 in WT and SKO colon tissue from FIG. 2. Data is representative of at least two independent experiments. Error bars indicate s.d. *; p<0.05, Student's t-test.
In this situation, MyD88 exerts a protective effect by facilitating the production of IL-18 through the IL-18R, which is required to inhibit IL-22BP. IL-22BP is necessary to suppress IL-22 function, which can promote the proliferation of intestinal epithelial cells following damage by carcinogens or inflammatory agents. Mice lacking IL-18 or IL-22BP are highly susceptible to CAC, similar to STING-deficient mice. […]

SMILES	production of IL-18
CNNC [DMH, 1,2-dimethylhydrazine]	could also trigger the production of IL-18
CN=[N+](C)[O-] [AOM, Azoxymethane]	could also trigger the production of IL-18
